Assay results reported in PubChem BioAssay AID686979 (National Center for Advancing Translational Sciences (NCATS), 2013).
In all, about 420,000 compounds went through this assay and about 50,000 (12%) were called active. Inconclusive means that the source gave no clear call. Such entries were picked first, then a sample of the others. Calls follow the shape of the dose curve; as a rule, active = well fitted inhibition curve with a large enough effect; inconclusive = small, poorly fitted or top-dose-only effect; inactive = flat fitted curve, though single readings scatter. Potencies of inconclusive entries are left out as doubtful fits.

Assay: qHTS for Inhibitors of human tyrosyl-DNA phosphodiesterase 1 (TDP1): qHTS in cells in presence of CPT; also: nearly all actives have a fitted effect of over 55% in size
Conditions: chicken DT40 Tdp1-/-;hTDP1 cells + 20 nM CPT, ATP luminescence, 48 h; activity change, negative = growth inhibition: at 46.2 µM (top of the series)
In short: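 Chicken DT40 Tdp1-/- cells complemented with human TDP1, 400 cells/well, exposed to compounds plus 20 nM camptothecin for at least 48 h at 37 C; viability read as ATP content by CellTiter-Glo luminescence.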
% is scaled to controls: 0 for no effect and ±100 for the full control effect; potency is read from the fitted curve at half-maximal effect; tags tell the direction and shape of the fitted curve.

Row | Structure (SMILES) | Potency | activity change, negative = growth inhibition
1 | O=C(c1ccc2c(c1)OCCO2)C1CCN(C(=O)c2ccc(F)c(F)c2)CC1 | inconclusive [inhibitor, partial curve] | 
2 | CCC1CN(S(=O)(=O)c2cc(-c3onc(C)c3C)ccc2C)c2cc(Cl)ccc2O1 (stereo not given) | active: 14.6 µM | 
3 | Cc1nn(CC(=O)Nc2ccc(F)cc2)c(=O)c2ccccc12 | inactive | 
4 | COc1cccc(C(C)(O)c2nc(-c3ccccc3OC)cs2)c1 (stereo not given) | inconclusive [inhibitor, single point] | 
5 | CCOc1ccc(N(CC(=O)NCc2ccccc2Cl)S(=O)(=O)c2c(C)noc2C)cc1 | inconclusive [inhibitor, single point] | 
6 | Cn1nc(C(=O)Nc2nc3ccccc3[nH]2)ccc1=O | inactive | 
7 | Cn1c(=N)n(CC(=O)c2ccccc2)c2ccccc21 | inconclusive [inhibitor, partial curve] | 
8 | CC1CN(CCC(=O)NCc2ccc3ncccc3c2)Cc2cc(Cl)ccc2O1 (stereo not given) |  | inactive: -5.84% [at 9.04 µM]
9 | Cc1ccc(Cn2ccnc2SCC(=O)Nc2nc3ccccc3s2)cc1 | inactive | 
10 | Cc1ccc(Cn2c(=S)[nH]c3ccccc3c2=O)cc1 | inactive | 
11 | Cc1ccc(S(=O)(=O)Nc2ccccc2C=Nc2cccc(C)c2C)cc1 | inconclusive [inhibitor, single point] | 
12 | COc1ccc(CN(C)CC2CCCN(CCc3ccc(F)cc3)C2)cc1OC (stereo not given) | active: 16.4 µM | 
13 | Cc1nn(C)c(C)c1CN(Cc1nc(-c2ccc(F)cc2F)oc1C)C1CC1 | inconclusive [inhibitor, single point] | 
14 | Cc1cccc(OCCCCCn2ccnc2)c1 | inconclusive [inhibitor, single point] | 
15 | Cc1ccccc1P(=O)(c1ccccc1)c1ccccc1C | inconclusive [inhibitor, single point] | 
16 | COC(=O)CSC1=C(C#N)C(c2ccccc2)CC(=O)N1 (stereo not given) | inconclusive [inhibitor, single point] | 
17 | CCN(C(=O)CSc1nc2scc(-c3ccccc3)c2c(=O)n1N)C1CCS(=O)(=O)C1 (stereo not given) | inconclusive [inhibitor, full curve, poor fit] | 
18 | CCOC(=O)CSc1nc2cc(C(=O)NCc3ccco3)ccc2c(=O)n1-c1ccc(F)cc1 | inconclusive [inhibitor, single point] | 
19 | O=C(NNC(=O)C1CC2CCC1C2)c1sc2ccccc2c1Cl (stereo not given) | inconclusive [inhibitor, single point] | 
20 | C#CCOc1ccc(C2CC(=O)Nc3c2c(C)nn3-c2nc(C)cc(C)n2)cc1 (stereo not given) | inconclusive [inhibitor, single point] | 
21 | O=C(COc1cccc(Cl)c1)N/N=C\c1cc2ccccc2nc1Cl | inconclusive [inhibitor, single point] | 
22 | CCc1ccc2c(c1)N(CC(C)CN(C)C)c1ccccc1S2 (stereo not given) | inconclusive [inhibitor, single point] | 
23 | COc1ccc(CCC(=O)NCCS(=O)(=O)N2CCN(c3ccccc3OC)CC2)cc1 | active: 20.6 µM | 
24 | O=S1(=O)c2c(F)cccc2OC(COc2ccccc2)CN1CCc1ccc(F)cc1 (stereo not given) | inconclusive [inhibitor, single point] | 

Row | Structure (SMILES) | Potency | activity change, negative = growth inhibition
25 | Cc1cccc(-n2ncc3c(N4CCCC(C)C4)ncnc32)c1 (stereo not given) | inconclusive [inhibitor, partial curve] | 
26 | O=C(CNS(=O)(=O)c1ccc2ccccc2c1)OCc1csc(-c2ccccc2)n1 | inconclusive [inhibitor, single point] | 
27 | Cc1ccsc1C(=O)N1CCC1(C)C(=O)NCC(C)(C)C (stereo not given) | inactive | 
28 | Cc1cccc(C(=O)N2c3nc(-c4ccco4)nn3C3(CCCCC3)[C@@H]3CCCC[C@@H]32)c1 | inconclusive [inhibitor, single point] | 
29 | CN(C(=O)c1cccc(NC(=O)Cc2cccc(NC(=O)C3CCN(S(=O)(=O)c4cccc([N+](=O)[O-])c4)CC3)c2)c1)C1CC1 | inconclusive [inhibitor, single point] | 
30 | Cc1ccc(-c2cnc3c(Nc4cccc(OC(F)(F)C(F)F)c4)nccn23)cc1 | active: 23.1 µM | 
31 | CCOc1ccccc1NC(=O)Nc1ccc(Cl)cc1 | inconclusive [inhibitor, single point] | 
32 | CCN=c1sc(C(=O)NCCc2ccccc2)cc(=O)n1CC | inconclusive [inhibitor, single point] | 
33 | CCn1cc(C(=S)N2CCC(C(N)=O)CC2)c2ccccc21 | inconclusive [inhibitor, single point] | 
34 | COc1ccc(-c2nc(C#N)c(NCC3CCCO3)o2)cc1 (stereo not given) |  | inconclusive: -34.5% [inhibitor]
35 | COCCNC(=O)C1(C)CCN(C(=O)c2ccc3ccccc3n2)C1 (stereo not given) | inactive | 
36 | COc1ccccc1N/C(N)=N/c1nc(C)cc(C)n1 | inconclusive [inhibitor, single point] | 
37 | COC(=O)/C=C(\C)NC(=O)c1cccs1 | inactive | 
38 | OCC[C@@H]1C[C@H](O)[C@@H](O)[C@]2(OCc3ccc(CO)cc32)O1 | inactive | 
39 | COc1ccc(CN2CCN(C(=O)CCC(=O)Nc3nnc(C(C)C)s3)CC2)cc1F | inconclusive [inhibitor, partial curve] | 
40 | CCC(=O)N1Cc2cc(C(=O)NCc3cccc(F)c3)nc(-c3cccc(C4=CCCC4)c3)c2[C@H]1CCO | inconclusive [inhibitor, single point] | 
41 | O=c1ccc(-c2ccccc2)nn1Cc1ccc(F)cc1Cl | inconclusive [inhibitor, partial curve] | 
42 | Cc1cc(C(=O)CSc2nnc3ccccn23)c(C)n1-c1ccccc1 | inconclusive [inhibitor, partial curve, poor fit] | 
43 | CC(C)N(C)CCOC(=O)c1ccccc1Br | active: 16.4 µM | 
44 | COc1ccc(-c2[nH]c(-c3ccc(F)cc3)nc2SCC(=O)NC2CCCC2)cc1 | inconclusive [inhibitor, single point] | 
45 | CCCN1CCC(=O)N(CCC#N)CC1 | inactive | 
46 | Cc1ccc(-n2c(CCc3ccccc3)nnc2SCC(=O)NCc2ccccc2)cc1C | inconclusive [inhibitor, partial curve] | 
47 | Cc1cc(C)n(-c2ncnc3sc4c(c23)CCCC4)n1 | inactive | 
48 | Cc1ccc(NC(=O)CN(C)C(=O)CNC(=O)c2sc3ccccc3c2Cl)cc1 | inconclusive [inhibitor, single point] | 

Row | Structure (SMILES) | Potency | activity change, negative = growth inhibition
49 | Cc1ccc(S(=O)(=O)Nc2c(O)ccc3ccccc23)cc1 | inconclusive [inhibitor, single point] | 
50 | CCn1cc(C(=O)O)c(=O)c2cc(F)c(N3CCN(C(=O)Nc4ccccc4)CC3)cc21 | active: 20.6 µM | 
51 | COCOc1ccc(C=O)c(OCOC)c1 | inconclusive [inhibitor, single point] | 
52 | COc1ccc(C(=O)n2nc(-c3ccco3)nc2SC)cc1OC | inconclusive [inhibitor, partial curve] | 
53 | C/C(Cn1nc([N+](=O)[O-])cc1C)=N\NC(=O)COc1ccccc1[N+](=O)[O-] | inactive | 
54 | Cc1ccc(CNC(=O)C2CC(c3cc(C(F)(F)F)cc(C(F)(F)F)c3)=NO2)o1 (stereo not given) | active: 3.26 µM | 
55 | COc1ccccc1/C=C1\SC(=S)N(CCC(=O)Nc2nnc(C)s2)C1=O | inconclusive [inhibitor, single point] | 
56 | COc1ccc(NC(=O)c2ccc(C(=O)c3ccccc3)o2)cc1 | inconclusive [inhibitor, full curve] | 
57 | O=C(CSC(=S)N1CCCC1)c1cc(Br)cc(Br)c1O | inconclusive [inhibitor, single point] | 
58 | Cc1c(C(=O)Nc2cccc(-c3nc4ccccc4s3)c2)oc2ccccc12 | active: 16.4 µM | 
59 | CC1Cc2ccccc2N1C(=O)C1CCN(S(=O)(=O)c2cccs2)CC1 (stereo not given) | inconclusive [inhibitor, single point] | 
60 | CCCCC(c1nnnn1CC1CCCO1)N1CCN(c2cccc(C)c2C)CC1 (stereo not given) | inconclusive [inhibitor, single point] | 
61 | CC1(C)C2CC=C(/C=N/NC(=S)NCCc3ccccc3)C1C2 (stereo not given) | inconclusive [inhibitor, single point] | 
62 | Cc1c(Br)cc(C(=O)NC2CCCCC2)c(C)c1C | inconclusive [inhibitor, partial curve] | 
63 | Cc1ccccc1Cn1c(=O)n(Cc2ccco2)c(=O)c2ccccc21 | active: 14.6 µM | 
64 | CCCCCCSc1nnc2c(n1)OC(C)Nc1ccc(Br)cc1-2 (stereo not given) | inactive | 
65 | Cc1ccccc1SC1CCN(Cc2nc(C3CC3)no2)CC1 | inactive | 
66 | O=C(NC(=S)N1CCCCCC1)c1ccccc1 | inconclusive [inhibitor, single point] | 
67 | Cc1ccc(S(=O)(=O)N2CCCN(C(=O)c3ccc(-n4cccn4)cc3)CC2)cc1 | inconclusive [inhibitor, partial curve] | 
68 | CC(C)C1Nc2ccc(C(=O)NCc3ccco3)cc2NC1=O (stereo not given) | inconclusive [inhibitor, single point] | 
69 | O=C(O)C1CCN(S(=O)(=O)c2ccc3[nH]ccc3c2)CC1 | inactive | 
70 | COC(=O)c1ccc(Oc2nc(Nc3ccc(F)cc3)nc(N3CCCC3)n2)cc1 | inconclusive [inhibitor, single point] | 
